From the supplement of paper PMC12217912 come the findings set out here.

Some of the results follow. Sequences were assembled here from the parent chain. Inactive controls read about 0.05.

B1: TEV protease; numbered along this chain (parent)
chain: MGESLFKGPRDYNPISSSICHLTNESDGHTTSLYGIGFGPFIITNKHLFRRNNGTLVVQSLHGVFKVKDTTTLQQHLVDGRDMIIIRMPKDFPPFPQKLKFREPQREERICLVTTNFQTKSMSSMVSDTSCTFPSGDGIFWKHWIQTKDGQCGSPLVSTRDGFIVGIHSASNFTNTNNYFTSVPKNFMELLTNQEAQQWVSGWRLNADSVLWGGHKVFMVKPEEPFQPVKEATQL

Variants of B1 are the subject of the experiment. The experiment in a line: raw area under fraction-flipped curve 0-4 h after induction (AUC4h, not background-subtracted), DNA-recorder readout of cleavage of the substrate (dimensionless); higher = more cleavage of the substrate by the protease variant. The note with it: temperature: 34 °C; time window: 0-4 h after rhamnose induction. As to the method: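 In vivo DNA recorder in E. coli TOP10(DE3) ΔrhaA at 34 °C. Each TEVp single-site mutant (parent TEVp 0) is paired with a single-site variant of the 7-mer TEVs (canonical ENLYFQ|S). The substrate sits between flexible linkers in a Bxb1-sfGFP-TEVs-SsrA fusion, so cleavage stabilises Bxb1 and speeds flipping of a recombination array, read by NGS. The value is the raw area under the fraction-flipped curve over 0-4 h after rhamnose induction (AUC4h), with ≥20 reads per time point. It is not background-subtracted; inactive controls average about 0.047.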
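Note: Bxb1 expression induced with 0.2% (w/v) L-rhamnose at OD600 near 0.5, cultures sampled hourly, flipped fraction per protease–substrate barcode pair counted by paired-end Illumina sequencing.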

Turning to MGESLFKHPRDYNPISSSICHLTNESDGHTTSLYGIGFGPFIITNKHLFRRNNGTLVVQSLHGVFKVKDTTTLQQHLVDGRDMIIIRMPKDFPPFPQKLKFREPQREERICLVTTNFQTKSMSSMVSDTSCTFPSGDGIFWKHWIQTKDGQCGSPLVSTRDGFIVGIHSASNFTNTNNYFTSVPKNFMELLTNQEAQQWVSGWRLNADSVLWGGHKVFMVKPEEPFQPVKEATQL [G8H], the “area with substrate ENLAFQS” value is 0.0769, the “area with substrate ENLIFQS” value was found to be 0.0857, the “area with substrate ENLMFQS” value came out at 0.0773 and the “area with substrate ENLPFQS” value is 0.0665. Moreover, the “area with substrate ENLSFQS” value came to 0.0316 and the “area with substrate ENLTFQS” value was found to be 0.0647.

MGKSLFKGPRDYNPISSSICHLTNESDGHTTSLYGIGFGPFIITNKHLFRRNNGTLVVQSLHGVFKVKDTTTLQQHLVDGRDMIIIRMPKDFPPFPQKLKFREPQREERICLVTTNFQTKSMSSMVSDTSCTFPSGDGIFWKHWIQTKDGQCGSPLVSTRDGFIVGIHSASNFTNTNNYFTSVPKNFMELLTNQEAQQWVSGWRLNADSVLWGGHKVFMVKPEEPFQPVKEATQL [E3K]: the “area with substrate ENLAFQS” value was determined as 0.0703, the “area with substrate ENLCFQS” value turned out to be 0.0795, the “area with substrate ENLFFQS” value was determined as 0.101 and the “area with substrate ENLIFQS” value is 0.109. The “area with substrate ENLNFQS” value was 0.0676, the “area with substrate ENLPFQS” value was determined as 0.0444, the “area with substrate ENLRFQS” value came to 0.0802 and the “area with substrate ENLVFQS” value was 0.068.

On to MGESLFCGPRDYNPISSSICHLTNESDGHTTSLYGIGFGPFIITNKHLFRRNNGTLVVQSLHGVFKVKDTTTLQQHLVDGRDMIIIRMPKDFPPFPQKLKFREPQREERICLVTTNFQTKSMSSMVSDTSCTFPSGDGIFWKHWIQTKDGQCGSPLVSTRDGFIVGIHSASNFTNTNNYFTSVPKNFMELLTNQEAQQWVSGWRLNADSVLWGGHKVFMVKPEEPFQPVKEATQL [K7C], for which the “area with substrate ENLAFQS” value was determined as 0.0483, the “area with substrate ENLEFQS” value was found to be 0.0666, the “area with substrate ENLHFQS” value came out at 0.0651 and the “area with substrate ENLKFQS” value is 0.067. The “area with substrate ENLNFQS” value came out at 0.0606, the “area with substrate ENLRFQS” value turned out to be 0.0676, the “area with substrate ENLSFQS” value is 0.0457 and the “area with substrate ENLVFQS” value was determined as 0.0764.

Take MGESLFMGPRDYNPISSSICHLTNESDGHTTSLYGIGFGPFIITNKHLFRRNNGTLVVQSLHGVFKVKDTTTLQQHLVDGRDMIIIRMPKDFPPFPQKLKFREPQREERICLVTTNFQTKSMSSMVSDTSCTFPSGDGIFWKHWIQTKDGQCGSPLVSTRDGFIVGIHSASNFTNTNNYFTSVPKNFMELLTNQEAQQWVSGWRLNADSVLWGGHKVFMVKPEEPFQPVKEATQL [K7M]: the “area with substrate ENLAFQS” value was determined as 0.0547, the “area with substrate ENLDFQS” value was found to be 0.0684, the “area with substrate ENLFFQS” value turned out to be 0.0785 and the “area with substrate ENLKFQS” value is 0.0851. The “area with substrate ENLLFQS” value was found to be 0.0677, the “area with substrate ENLNFQS” value was 0.0765 and the “area with substrate ENLSFQS” value came to 0.0752.

As to MGESLFKGPRDYNFISSSICHLTNESDGHTTSLYGIGFGPFIITNKHLFRRNNGTLVVQSLHGVFKVKDTTTLQQHLVDGRDMIIIRMPKDFPPFPQKLKFREPQREERICLVTTNFQTKSMSSMVSDTSCTFPSGDGIFWKHWIQTKDGQCGSPLVSTRDGFIVGIHSASNFTNTNNYFTSVPKNFMELLTNQEAQQWVSGWRLNADSVLWGGHKVFMVKPEEPFQPVKEATQL [P14F], the “area with substrate ENLAFQS” value stood at 0.0651, the “area with substrate ENLDFQS” value is 0.0682, the “area with substrate ENLEFQS” value was determined as 0.0724 and the “area with substrate ENLFFQS” value was 0.0814. Further, the “area with substrate ENLKFQS” value came to 0.0758, the “area with substrate ENLNFQS” value is 0.0459, the “area with substrate ENLPFQS” value was 0.0708 and the “area with substrate ENLQFQS” value worked out at 0.0631. Moreover, the “area with substrate ENLRFQS” value worked out at 0.0587, the “area with substrate ENLSFQS” value was 0.0601, the “area with substrate ENLTFQS” value was found to be 0.0648 and the “area with substrate ENLWFQS” value stood at 0.0053.

For the variant MGESLFKGSRDYNPISSSICHLTNESDGHTTSLYGIGFGPFIITNKHLFRRNNGTLVVQSLHGVFKVKDTTTLQQHLVDGRDMIIIRMPKDFPPFPQKLKFREPQREERICLVTTNFQTKSMSSMVSDTSCTFPSGDGIFWKHWIQTKDGQCGSPLVSTRDGFIVGIHSASNFTNTNNYFTSVPKNFMELLTNQEAQQWVSGWRLNADSVLWGGHKVFMVKPEEPFQPVKEATQL [P9S], the “area with substrate ENLAFQS” value was 0.0699, the “area with substrate ENLDFQS” value came out at 0.0692, the “area with substrate ENLFFQS” value is 0.0659 and the “area with substrate ENLHFQS” value amounted to 0.0667. Besides, the “area with substrate ENLIFQS” value is 0.0964, the “area with substrate ENLLFQS” value was determined as 0.0564, the “area with substrate ENLNFQS” value turned out to be 0.0701 and the “area with substrate ENLPFQS” value turned out to be 0.0363. Further, the “area with substrate ENLRFQS” value was 0.0698, the “area with substrate ENLSFQS” value stood at 0.0782 and the “area with substrate ENLWFQS” value was 0.0577.

For MGESLFKGDRDYNPISSSICHLTNESDGHTTSLYGIGFGPFIITNKHLFRRNNGTLVVQSLHGVFKVKDTTTLQQHLVDGRDMIIIRMPKDFPPFPQKLKFREPQREERICLVTTNFQTKSMSSMVSDTSCTFPSGDGIFWKHWIQTKDGQCGSPLVSTRDGFIVGIHSASNFTNTNNYFTSVPKNFMELLTNQEAQQWVSGWRLNADSVLWGGHKVFMVKPEEPFQPVKEATQL [P9D], the “area with substrate ENLAFQS” value was 0.0627, the “area with substrate ENLDFQS” value is 0.0655, the “area with substrate ENLGFQS” value is 0.0714 and the “area with substrate ENLKFQS” value was found to be 0.0558. In addition, the “area with substrate ENLRFQS” value turned out to be 0.0724.

For the variant MGESLFKGERDYNPISSSICHLTNESDGHTTSLYGIGFGPFIITNKHLFRRNNGTLVVQSLHGVFKVKDTTTLQQHLVDGRDMIIIRMPKDFPPFPQKLKFREPQREERICLVTTNFQTKSMSSMVSDTSCTFPSGDGIFWKHWIQTKDGQCGSPLVSTRDGFIVGIHSASNFTNTNNYFTSVPKNFMELLTNQEAQQWVSGWRLNADSVLWGGHKVFMVKPEEPFQPVKEATQL [P9E], the “area with substrate ENLAFQS” value was 0.0526, the “area with substrate ENLCFQS” value was 0.0713, the “area with substrate ENLDFQS” value came to 0.0623 and the “area with substrate ENLFFQS” value turned out to be 0.0745. The “area with substrate ENLHFQS” value was 0.0562, the “area with substrate ENLKFQS” value was determined as 0.0771, the “area with substrate ENLNFQS” value came to 0.0453 and the “area with substrate ENLQFQS” value amounted to 0.0598. Besides, the “area with substrate ENLRFQS” value turned out to be 0.0701, the “area with substrate ENLSFQS” value came out at 0.0675 and the “area with substrate ENLWFQS” value stood at 0.067.

In the case of MGESLEKGPRDYNPISSSICHLTNESDGHTTSLYGIGFGPFIITNKHLFRRNNGTLVVQSLHGVFKVKDTTTLQQHLVDGRDMIIIRMPKDFPPFPQKLKFREPQREERICLVTTNFQTKSMSSMVSDTSCTFPSGDGIFWKHWIQTKDGQCGSPLVSTRDGFIVGIHSASNFTNTNNYFTSVPKNFMELLTNQEAQQWVSGWRLNADSVLWGGHKVFMVKPEEPFQPVKEATQL [F6E], the “area with substrate ENLAFQS” value amounted to 0.0531, the “area with substrate ENLFFQS” value is 0.0856, the “area with substrate ENLKFQS” value was 0.0671 and the “area with substrate ENLLFQS” value came to 0.0884. Moreover, the “area with substrate ENLMFQS” value is 0.0716 and the “area with substrate ENLRFQS” value was 0.0551.

With MGESLCKGPRDYNPISSSICHLTNESDGHTTSLYGIGFGPFIITNKHLFRRNNGTLVVQSLHGVFKVKDTTTLQQHLVDGRDMIIIRMPKDFPPFPQKLKFREPQREERICLVTTNFQTKSMSSMVSDTSCTFPSGDGIFWKHWIQTKDGQCGSPLVSTRDGFIVGIHSASNFTNTNNYFTSVPKNFMELLTNQEAQQWVSGWRLNADSVLWGGHKVFMVKPEEPFQPVKEATQL [F6C], the “area with substrate ENLAFQS” value turned out to be 0.0835, the “area with substrate ENLDFQS” value was 0.056, the “area with substrate ENLNFQS” value is 0.058 and the “area with substrate ENLQFQS” value is 0.068. In addition, the “area with substrate ENLVFQS” value stood at 0.0709.

On to MGESLFKGPRDYNPISSSDCHLTNESDGHTTSLYGIGFGPFIITNKHLFRRNNGTLVVQSLHGVFKVKDTTTLQQHLVDGRDMIIIRMPKDFPPFPQKLKFREPQREERICLVTTNFQTKSMSSMVSDTSCTFPSGDGIFWKHWIQTKDGQCGSPLVSTRDGFIVGIHSASNFTNTNNYFTSVPKNFMELLTNQEAQQWVSGWRLNADSVLWGGHKVFMVKPEEPFQPVKEATQL [I19D], for which the “area with substrate ENLAFQS” value was 0.0476, the “area with substrate ENLCFQS” value turned out to be 0.0559, the “area with substrate ENLDFQS” value turned out to be 0.0514 and the “area with substrate ENLEFQS” value came out at 0.0515. Besides, the “area with substrate ENLFFQS” value came out at 0.0558, the “area with substrate ENLHFQS” value was 0.0461, the “area with substrate ENLIFQS” value is 0.0559 and the “area with substrate ENLKFQS” value worked out at 0.045. Besides, the “area with substrate ENLLFQS” value was determined as 0.0458, the “area with substrate ENLNFQS” value was 0.0457, the “area with substrate ENLPFQS” value came to 0.0227 and the “area with substrate ENLQFQS” value was found to be 0.0262. For the same variant, the “area with substrate ENLRFQS” value worked out at 0.0555, the “area with substrate ENLSFQS” value came out at 0.0258, the “area with substrate ENLVFQS” value is 0.0433 and the “area with substrate ENLWFQS” value was 0.046.
